Source: PubChem BioAssay AID485294 (National Center for Advancing Translational Sciences (NCATS), 2010)
Among all 370,000 compounds or so, about 150 (0.041%) were called active. Inconclusive results, whose numbers are uncertain, are shown with a selection of clear calls. The call rests on the fitted dose curve; in most records, active means well fitted inhibition curve with a large enough effect; inconclusive means small, poorly fitted or top-dose-only effect; inactive means flat fitted curve, though single readings scatter. Potencies of inconclusive entries are left out as doubtful fits.

The compounds below were run against Beta-lactamase (Escherichia coli (strain K12)) (UniProt P00811) (assay: qHTS Inhibitors of AmpC Beta-Lactamase (assay with detergent)). Details: AmpC hydrolysis of nitrocefin, absorbance 480 nm, 0.01% Triton; activity change, negative = inhibition: at 114 µM (top of the series).
Procedure, shortened: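 20 mM phosphate pH 7.0 + 0.01% (detergent screen) or 0.0001% Triton X-100; 5.3 nM AmpC reagent; cpd preinc 15 min RT; nitrocefin (800 uM stock) to start; A480 q20 s × 4 min; Activity was normalised to no-enzyme and no-compound control wells.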
Further: nearly all actives have a fitted effect of over 25% in size.
Potency means the concentration at half of the fitted maximal effect; tags describe the fitted curve by direction and shape.
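Wherever activity change, negative = inhibition is given: 0% = no-compound wells and -100% = no-enzyme wells.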

UniProt P00811, sequence (P00811 whole entry, looked up): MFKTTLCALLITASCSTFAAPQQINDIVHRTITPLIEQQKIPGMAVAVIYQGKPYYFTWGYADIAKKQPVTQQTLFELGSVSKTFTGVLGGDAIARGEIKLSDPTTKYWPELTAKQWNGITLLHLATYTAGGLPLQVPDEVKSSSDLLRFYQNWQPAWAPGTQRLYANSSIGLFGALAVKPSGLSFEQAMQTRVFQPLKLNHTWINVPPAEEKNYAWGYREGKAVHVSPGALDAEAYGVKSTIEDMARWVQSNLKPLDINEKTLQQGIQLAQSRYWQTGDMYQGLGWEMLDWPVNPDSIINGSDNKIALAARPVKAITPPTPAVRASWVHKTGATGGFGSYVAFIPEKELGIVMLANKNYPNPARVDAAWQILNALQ

Row | Compound | Potency | activity change, negative = inhibition
1 | CC(c1ccccc1)N1C(=O)C2C3C=CC(C4CC34)C2C1=O (centres undefined) | inconclusive [inhibitor, full curve, poor fit] | 
2 | COc1cc(OC)nc(-n2ncc(Br)c(Br)c2=O)n1 |  | inactive: -4.69%
3 | COCCCNC(=O)c1ccc(Cn2c(=O)c3ccccc3n(CC(=O)NCCc3ccc(OC)c(OC)c3)c2=O)cc1 |  | inactive: 2.19%
4 | Clc1ccc2c(c1)c1cc(Cl)ccc1n2CN1CCOCC1 |  | inactive: -8.13%
5 | COc1cccc(OC)c1C(=O)NCCN1CCN(C(=O)c2c(OC)cccc2OC)CC1 | inconclusive [inhibitor, full curve] | 
6 | CCN(CC)C(=O)CCCc1c[nH]c2ccccc12 |  | inactive: 0.924%
7 | CCOC(=O)CN1C(=O)C(Sc2n[nH]c(-c3cccc(C)c3)n2)CCc2ccccc21 (centres undefined) |  | inactive: 0.802%
8 | Cn1[nH]c(-c2ccccc2)c(/C=N/O)c1=O |  | inactive: -3.25%
9 | O=C(CCC1CCCC1)N1CCc2c([nH]c3ccccc23)C1c1ccc(Cl)cc1 (centres undefined) |  | inactive: -0.273%
10 | CCCc1cc(C(=O)N(C)CC(=O)Nc2ccc(OCC)c(OCC)c2)sc1C | inconclusive [inhibitor, partial curve, poor fit] | 
11 | O=C1OC(=O)C2C3CCC(O3)C12 (centres undefined) | inconclusive [inhibitor, full curve] | 
12 | CN(C)CCCNCC(=O)Nc1ccc(Cl)cc1C(=O)c1ccccc1 |  | inactive: -2.7%
13 | O=[N+]([O-])/C=C/c1cc2ccccc2[nH]1 | inconclusive [inhibitor, full curve] | 
14 | O=C(N/N=C/c1ccc(OC(=O)c2ccccc2Cl)cc1)c1ccccn1 | inconclusive [inhibitor, full curve, poor fit] | 
15 | Cc1ccc(/C=N/NC(=O)Cn2cnc3ccccc32)o1 | inconclusive [inhibitor, full curve, poor fit] | 
16 | COc1cc(O)sc1C=Nc1ccc(Cl)cc1 | inconclusive [inhibitor, full curve, poor fit] | 
17 | CSc1nc(SC)c2c3c(oc2n1)COC(C)(C)C3 | inconclusive [inhibitor, full curve] | 
18 | CCC(CC)C(=O)NCc1ccccc1OC | inconclusive [inhibitor, partial curve, poor fit] | 
19 | CCOC(=O)c1cc(-c2ccc(C)cc2)n(CCC(=O)Nc2nc3c(C)cccc3s2)c1C |  | inactive: -6.36%
20 | Cc1ccc(C)c(OCCCN2CCCC2)c1 | inconclusive [inhibitor, partial curve] | 
21 | COc1ccc(C(=O)NNC(=O)c2ccncc2)cc1 | inconclusive [inhibitor, single point] | 
22 | COc1ccc(C(NC(=O)N2CC(C)OC(C)C2)C(Cl)(Cl)Cl)cc1F (centres undefined) |  | inactive: 1.93%
23 | Cc1cc(C)cc(N2CC(O)=C(c3nc4ccccc4c(=O)[nH]3)C2=N)c1 |  | inactive: 2.02%
24 | Cc1cc(C)nc(SCC(=O)Nc2ccc(Br)cn2)n1 | inconclusive [inhibitor, partial curve, poor fit] | 
25 | Cc1nn(-c2ccccc2)c2nc(C(F)F)cc(C(F)F)c12 | inconclusive [inhibitor, full curve] | 

Row | Compound | Potency | activity change, negative = inhibition
26 | CC(C)NC(=O)CCn1c(SCc2c(F)cccc2Cl)nc2c(sc3ccccc32)c1=O |  | inactive: 7.41%
27 | CCOC(=O)N1CCC(NC(=O)c2cc3c(-c4cccc(OC)c4)nn(C)c3s2)CC1 |  | inactive: -1.16%
28 | CSc1nc2ccc(NC(=O)c3cc4ccccc4o3)cc2s1 |  | inactive: -3.25%
29 | CCOC(=O)C1CCCN(C(=O)Cc2c(C(=O)O)[nH]c3ccccc23)C1 (centres undefined) | inconclusive [inhibitor, single point] | 
30 | COc1ccccc1NS(=O)(=O)c1c(C)nc2sccn2c1=O | inconclusive [inhibitor, partial curve] | 
31 | Cc1ccc(Cn2c(SCCN3CCCCC3)nc3c2c(=O)[nH]c(=O)n3C)cc1 |  | inactive: -5.79%
32 | N#CC12CCCCC1CC1CCCCC1(C#N)N2CCO (centres undefined) | inconclusive [inhibitor, full curve, poor fit] | 
33 | CCc1c(C)c2c(C)nn(-c3ccccc3)c2[nH]c1=O | inconclusive [inhibitor, full curve] | 
34 | Cc1ccc(NC2CC(=O)N(c3ccc(N4CCCCC4)cc3)C2=O)cc1 (centres undefined) | inconclusive [inhibitor, full curve, poor fit] | 
35 | COc1cccc(CNC(=O)Cn2nc([N+](=O)[O-])c(Br)c2C)c1 | inconclusive [inhibitor, partial curve, poor fit] | 
36 | COc1cccc(Cn2c(=O)n(CC3CCC(C(=O)N4CCCCC4)CC3)c(=O)c3sccc32)c1 (centres undefined) |  | inactive: 14.8%
37 | Cn1nccc1C(=O)Nc1ccc(OC(=O)c2ccnn2C)cc1 | inconclusive [inhibitor, single point] | 
38 | Cc1ccc(NC(=O)CCNS(=O)(=O)c2ccc3[nH]c(=O)oc3c2)cc1N(C)C | inconclusive [inhibitor, partial curve, poor fit] | 
39 | COc1ccc(C(=O)Oc2ccc3c(c2)OCO3)cc1OC | inconclusive [inhibitor, full curve] | 
40 | COc1cccc(CCNC(=O)Cn2c(-c3cccs3)cc3ccccc32)c1 |  | inactive: -9.26%
41 | CC(=Nc1ccc(C)cc1)c1sc2ccccc2c1O |  | inactive: 0.75%
42 | CNc1oc(-c2ccc(C)cc2)nc1P(=O)(c1ccccc1)c1ccccc1 |  | inactive: -12.8%
43 | COc1ccc(C2Nc3ccccc3C(=O)N2NS(=O)(=O)c2ccccc2)c(OC)c1 (centres undefined) |  | inactive: -2.04%
44 | Cc1ccc(C)c(C(=O)Cn2ncc(Cl)c(Cl)c2=O)c1 |  | inactive: -8.86%
45 | COc1ccc(-c2cc(=O)oc3c(C)c(OC(C)C(C)=O)ccc23)cc1 (centres undefined) |  | inactive: -0.989%
46 | CCn1c(CNc2ccc(Cl)cc2)nnc1SCc1ccccc1 | inconclusive [inhibitor, single point] | 
47 | Cc1cc(Cc2ccc(N)c(C)c2)ccc1N |  | inactive: -2.04%
48 | CC(C)(C)C(=O)NC(=S)NNC(=O)c1sc2ccccc2c1Cl | inconclusive [inhibitor, partial curve] | 
49 | CC(C)OP(=O)(OC(C)C)C(O)c1ccc2c(c1)OCO2 (centres undefined) | inconclusive [inhibitor, partial curve, poor fit] | 
